Laboratory results as given in the supplement of paper PMC11125491.
± gives the standard deviation of the averaged measurements. Growth of baker's yeast expressing single-residue variants of Pneumocystis jirovecii dihydrofolate reductase in 8.8 or 44 µM methotrexate (about 75% and 90% inhibition of the wild type). Selection coefficient per generation; 0 = like wild type, above 0 = less sensitive, below 0 = more sensitive or loss of function. No active / inactive call per row; the paper calls resistant above 0.220 (8.8 µM) or 0.243 (44 µM) together with a significance test. At 44 µM about 15% of codons end with one read or none, so the lowest values are floors (replicate rank correlation 0.74; 0.94 at 8.8 µM).

B1: UniProt A0EPZ9; numbered along this chain (parent)
chain: MDWQKSLTLIVALTLSRGIGLKNDLPWKLKSDMMFFSRVTSGLLVTRSTGQMNVVLMGRKTWESLPAHSRPLKNRINVVISRQEVLDLGGGAYHARSLDDALALLSQIYDSTSKIQLNRVFVIGGGELCKAAMEHSRLNRIIATVIHNEVDCDVFFPIDFRSSQSCLPWRKQDHSVLEAWVGSKVPQGKINENGFIYEFEMWIRDI

Variants of: B1
Assay: selection coefficient against synonymous wild-type codons (log2 per generation); higher = faster growth than wild type
Details: with Saccharomyces cerevisiae carrying the variant on a plasmid
Description: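 Pooled growth of yeast carrying single-residue variants of P. jirovecii dihydrofolate reductase (own DFR1 gene intact), two passages at 30 °C, three cultures, sequenced before and after. Codons with under 15 starting reads are left out; codons of one change are averaged.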

| Variant | selection coefficient against synonymous wild-type codons (log2) (methotrexate 8.8 µM) | selection coefficient against synonymous wild-type codons (log2) (methotrexate 44 µM) |
| --- | --- | --- |
| S37Q | 0.0185 ± 0.033 | 0.00642 ± 0.092 |
| S37R | -0.0862 ± 0.099 | -0.0238 ± 0.15 |
| S37H | -0.295 ± 0.042 | -0.0337 ± 0.088 |
| S37K | -0.14 ± 0.051 | -0.111 ± 0.05 |
| S37N | 0.17 ± 0.023 | 0.243 ± 0.054 |
| S37D | 0.0797 ± 0.0029 | 0.199 ± 0.057 |
| S37L | -0.146 ± 0.052 | -0.112 ± 0.11 |
| S37W | -0.274 ± 0.033 | -0.136 ± 0.073 |
| S37I | -0.254 ± 0.069 | -0.14 ± 0.12 |
| S37F | -0.366 ± 0.16 | -0.269 ± 0.059 |
| S37P | 0.617 ± 0.04 | 0.77 ± 0.046 |
| S37E | 0.469 ± 0.012 | 0.531 ± 0.022 |
| S37V | -0.435 ± 0.15 | -0.191 ± 0.11 |
| S37G | -0.0513 ± 0.043 | -0.0473 ± 0.057 |
| S37A | -0.143 ± 0.039 | -0.1 ± 0.061 |
| S37Y | -0.19 ± 0.081 | -0.0469 ± 0.087 |
| S37M | -0.215 ± 0.028 | -0.16 ± 0.12 |
| S37T | -0.113 ± 0.046 | -0.07 ± 0.1 |
| S37C | -0.373 ± 0.15 | -0.205 ± 0.2 |
| K30Y | 0.0488 ± 0.06 | -0.128 ± 0.093 |
| K30T | 0.166 ± 0.061 | 0.176 ± 0.12 |
| K30D | -0.0494 ± 0.029 | -0.0163 ± 0.03 |
| K30F | 0.0303 ± 0.063 | 0.113 ± 0.084 |

| Variant | selection coefficient against synonymous wild-type codons (log2) (methotrexate 8.8 µM) | selection coefficient against synonymous wild-type codons (log2) (methotrexate 44 µM) |
| --- | --- | --- |
| K30N | 0.0232 ± 0.092 | -0.0153 ± 0.12 |
| K30H | 0.0183 ± 0.033 | 0.000888 ± 0.13 |
| K30C | -0.0143 ± 0.0076 | 0.0134 ± 0.18 |
| K30Q | 0.00977 ± 0.043 | 0.0225 ± 0.051 |
| K30I | 0.0628 ± 0.054 | 0.0847 ± 0.035 |
| K30L | 0.0128 ± 0.061 | -0.00468 ± 0.073 |
| K30V | 0.0358 ± 0.053 | 0.000835 ± 0.14 |
| K30M | 0.101 ± 0.033 | 0.167 ± 0.0053 |
| K30W | 0.0253 ± 0.033 | 0.0479 ± 0.028 |
| K30P | -0.135 ± 0.074 | -0.0145 ± 0.097 |
| K30R | -0.12 ± 0.082 | -0.113 ± 0.13 |
| K30E | 0.0918 ± 0.012 | 0.0876 ± 0.057 |
| K30A | 0.0997 ± 0.039 | 0.098 ± 0.064 |
| K30S | 0.0146 ± 0.071 | 0.0132 ± 0.11 |
| K30G | 0.0483 ± 0.062 | 0.0613 ± 0.053 |
| M33K | 0.836 ± 0.029 | 1.09 ± 0.015 |
| M33W | 0.899 ± 0.053 | 1.19 ± 0.023 |
| M33R | 0.964 ± 0.034 | 1.29 ± 0.022 |
| M33C | 0.755 ± 0.036 | 0.949 ± 0.022 |
| M33A | 0.958 ± 0.035 | 1.22 ± 0.021 |
| M33D | 0.672 ± 0.046 | 0.7915 ± 0.0068 |
| M33F | 0.313 ± 0.011 | 0.365 ± 0.0094 |
| M33H | 0.969 ± 0.025 | 1.26 ± 0.018 |

| Variant | selection coefficient against synonymous wild-type codons (log2) (methotrexate 8.8 µM) | selection coefficient against synonymous wild-type codons (log2) (methotrexate 44 µM) |
| --- | --- | --- |
| M33V | 0.295 ± 0.043 | 0.448 ± 0.073 |
| M33T | 0.688 ± 0.043 | 0.868 ± 0.04 |
| M33P | 1.12 ± 0.057 | 1.48 ± 0.034 |
| M33N | 0.872 ± 0.024 | 1.1 ± 0.023 |
| M33G | 0.981 ± 0.035 | 1.27 ± 0.023 |
| M33Q | 0.938 ± 0.034 | 1.22 ± 0.017 |
| M33Y | 0.134 ± 0.065 | 0.215 ± 0.052 |
| M33E | 0.633 ± 0.024 | 0.727 ± 0.038 |
| M33L | 0.298 ± 0.2 | 0.61 ± 0.3 |
| M33I | 0.137 ± 0.04 | 0.324 ± 0.017 |
| M33S | 1.01 ± 0.039 | 1.31 ± 0.019 |
| P26L | -0.327 ± 0.12 | -0.232 ± 0.15 |
| P26Y | -0.354 ± 0.18 | -0.205 ± 0.12 |
| P26N | 0.125 ± 0.039 | 0.0213 ± 0.08 |
| P26H | -0.27 ± 0.18 | -0.0212 ± 0.061 |
| P26V | -0.0874 ± 0.046 | -0.0361 ± 0.068 |
| P26F | -0.585 ± 0.048 | -0.271 ± 0.13 |
| P26R | -0.0186 ± 0.052 | 0.0447 ± 0.11 |
| P26T | 0.131 ± 0.046 | 0.151 ± 0.063 |
| P26K | -0.251 ± 0.019 | -0.0282 ± 0.1 |
| P26G | 0.184 ± 0.038 | 0.17 ± 0.053 |
| P26I | -0.233 ± 0.12 | -0.00541 ± 0.12 |
| P26S | 0.123 ± 0.053 | 0.113 ± 0.1 |

| Variant | selection coefficient against synonymous wild-type codons (log2) (methotrexate 8.8 µM) | selection coefficient against synonymous wild-type codons (log2) (methotrexate 44 µM) |
| --- | --- | --- |
| P26W | -0.586 ± 0.032 | -0.229 ± 0.12 |
| P26M | -0.325 ± 0.14 | -0.15 ± 0.11 |
| P26Q | 0.0428 ± 0.047 | 0.0399 ± 0.046 |
| R38A | 0.00287 ± 0.063 | 0.0026 ± 0.12 |
| R38H | -0.0285 ± 0.023 | -0.0232 ± 0.12 |
| R38E | 0.195 ± 0.038 | 0.219 ± 0.0048 |
| R38C | -0.0909 ± 0.0077 | -0.0167 ± 0.0081 |
| R38K | 0.256 ± 0.018 | 0.284 ± 0.074 |
| R38D | 0.202 ± 0.042 | 0.219 ± 0.033 |
| R38F | -0.232 ± 0.013 | -0.151 ± 0.073 |
| R38G | 0.116 ± 0.053 | 0.159 ± 0.13 |
| R38I | -0.167 ± 0.046 | -0.183 ± 0.017 |
| L29I | 0.00304 ± 0.054 | -0.0881 ± 0.11 |
| L29Y | 0.183 ± 0.043 | 0.257 ± 0.041 |
| L29G | 0.22 ± 0.04 | 0.266 ± 0.07 |
| L29T | 0.654 ± 0.044 | 0.791 ± 0.071 |
| L29E | 0.357 ± 0.019 | 0.386 ± 0.031 |
| L29D | 0.264 ± 0.053 | 0.244 ± 0.074 |
| L29S | 0.19 ± 0.038 | 0.171 ± 0.079 |
| L29F | 0.0813 ± 0.015 | 0.0362 ± 0.049 |
| L29R | 0.131 ± 0.045 | 0.315 ± 0.082 |
| L29P | 0.0794 ± 0.032 | 0.113 ± 0.06 |
| L29V | 0.0799 ± 0.021 | 0.0463 ± 0.075 |

| Variant | selection coefficient against synonymous wild-type codons (log2) (methotrexate 8.8 µM) | selection coefficient against synonymous wild-type codons (log2) (methotrexate 44 µM) |
| --- | --- | --- |
| L29C | 0.0351 ± 0.022 | -0.0128 ± 0.089 |
| L29W | -0.0296 ± 0.057 | -0.0749 ± 0.11 |
| L29K | 0.441 ± 0.041 | 0.506 ± 0.074 |
| L29A | 0.415 ± 0.035 | 0.455 ± 0.045 |
| L29Q | 0.446 ± 0.007 | 0.479 ± 0.042 |
| L29M | 0.511 ± 0.01 | 0.602 ± 0.031 |
| L29H | 0.277 ± 0.02 | 0.227 ± 0.088 |
| L29N | 0.31 ± 0.036 | 0.284 ± 0.028 |
| F36D | -0.376 ± 0.14 | -0.00599 ± 0.085 |
| F36V | 0.556 ± 0.03 | 0.681 ± 0.05 |
| F36Q | 0.587 ± 0.0065 | 0.972 ± 0.02 |
| F36C | 0.163 ± 0.039 | 0.27 ± 0.046 |
| F36S | -0.126 ± 0.069 | 0.163 ± 0.09 |
| F36K | -0.481 ± 0.12 | -0.118 ± 0.059 |
| F36G | -0.437 ± 0.21 | -0.161 ± 0.12 |
| F36T | -0.0565 ± 0.079 | 0.149 ± 0.048 |
| F36N | -0.299 ± 0.14 | 0.0358 ± 0.074 |
| F36R | -0.296 ± 0.092 | -0.0423 ± 0.13 |
| F36I | 0.34 ± 0.021 | 0.5 ± 0.04 |
| F36Y | 0.781 ± 0.05 | 0.969 ± 0.041 |
| F36M | 0.441 ± 0.06 | 0.466 ± 0.16 |
| F36A | 0.234 ± 0.075 | 0.522 ± 0.08 |
| F36E | -0.325 ± 0.074 | -0.0119 ± 0.11 |
